Measured values as given in patent US8372973B2, “Prokineticin 1 receptor antagonists” (Janssen Pharmaceutica N.V., priority 2005, dated 2013).

Tested on: rat ileal tissues

EC50 (read-out: EC50 of PK1-evoked increases in Isc, cumulative concentration-response, basolateral addition): ~8.2 nM
B1: PK1: Recombinant human prokineticin-1 from HEK 293 cells, FLAG epitope cleaved; mixture of full-length ligand and four C-terminal residue truncated product (protein)
chain: AVITGACERDVQCGAGTCCAISLWLRGLRMCTPLGREGEECHPGSHKVPFFRKRKHHTCPCLPNLLCSRFPDGRYRCSMDLKNINF
modifications: mixture with C-terminal truncated product; Recombinant N-terminal FLAG-tagged human prokineticin-1 after enterokinase cleavage of Flag-tag
effect on tissue conductance (G): no significant effect
